Consider 72 sequences from paper PMC10726135.

The list shows a part of the results. At the low end of the ranking the order means little. The protein was read in a cell extract, so binding may be indirect.

This assay concerns the target T1, HNF4alpha2 (COS-7 nuclear extract) (UniProt P41235).
T1 sequence: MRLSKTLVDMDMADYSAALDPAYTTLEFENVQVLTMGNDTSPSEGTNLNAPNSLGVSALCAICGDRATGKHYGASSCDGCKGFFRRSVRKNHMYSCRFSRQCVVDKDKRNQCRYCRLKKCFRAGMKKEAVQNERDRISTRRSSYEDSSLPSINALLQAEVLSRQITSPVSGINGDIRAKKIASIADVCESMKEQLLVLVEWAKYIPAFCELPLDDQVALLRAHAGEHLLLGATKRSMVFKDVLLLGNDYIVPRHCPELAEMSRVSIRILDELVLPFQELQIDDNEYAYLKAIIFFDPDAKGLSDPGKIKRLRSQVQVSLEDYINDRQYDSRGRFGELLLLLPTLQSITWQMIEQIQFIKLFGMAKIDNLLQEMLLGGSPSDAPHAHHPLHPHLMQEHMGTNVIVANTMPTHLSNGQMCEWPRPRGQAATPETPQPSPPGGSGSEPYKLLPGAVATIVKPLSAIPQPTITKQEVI
The experiment in a line: protein-binding microarray. The following applies: COS-7 nuclear extract on double-stranded Agilent 4x180k PBM; binding buffer, salt, pH and temperature not given; high values mean tight binding; double strand, one strand shown; sequences stand for … in …GCCTAGGGAGATTAGAGTATCGGTCGA
Turning to ATTAGAGCACAATGTGGGGAGCACATGGCA, the binding signal (log2 normalized intensity) is -1.1.

Turning to GTCCTTTAACAAGGACAAAGGTCAACAAAC, the binding signal (log2 normalized intensity) was found to be 6.04.

Regarding GATGAGTGACCTTTGACCTCAGAGAGCCGG, the binding signal (log2 normalized intensity) was determined as 9.56.

Take TTCATTCTTTAAGGACCACATCAAAGGTCA: the binding signal (log2 normalized intensity) is 4.7.

On to ACTACCTCAAAGTTTTGTTATCTCTGCTTG, for which the binding signal (log2 normalized intensity) was -1.1.

Consider CACACCCCAAAAGGTCAATCTGGATTGTAC, for which the binding signal (log2 normalized intensity) was 3.23.

With TGAAAAACACTGGATAAAGTCCATATTCTT, the binding signal (log2 normalized intensity) was 2.3.

With GATTGACTCAGGCATTCTGACCTTTGTCTC, the binding signal (log2 normalized intensity) amounted to 7.05.

For TCTACTCCCTGTTCTTACACCTGCTCCCCT, the binding signal (log2 normalized intensity) turned out to be 2.87.

With TCGGGACAAGAGGAATGTTCATTCATTCAC, the binding signal (log2 normalized intensity) is -0.0238.

For TTCTTAGAGAGTTGGGCAAGACTCGTGAAA, the binding signal (log2 normalized intensity) came out at 1.21.

In the case of TTCATCTGACTGGAAGAGCCTGCAAGGGAG, the binding signal (log2 normalized intensity) was -1.06.

For the sequence ATCTGCAGGGCAGCAGACTCAGAAAAATAT, the binding signal (log2 normalized intensity) is -1.06.

Consider GATTACTTGGCACTTAGCACAAGTGACTAT, for which the binding signal (log2 normalized intensity) was -0.484.

Take TGAATTTAACCTTTGCTCTCTGAAATGAAG: the binding signal (log2 normalized intensity) is 4.71.

For CCACTCTTTTTTAGACTTTGACCTCCATAT, the binding signal (log2 normalized intensity) is 7.61.

As for AAGAACAGCTTTGGTATTACATTACAACCA, the binding signal (log2 normalized intensity) is -1.03.

Consider CTGCTTTGGTTAATCATTAGAGATGTTCAA, for which the binding signal (log2 normalized intensity) was 0.435.

Regarding CAAATACCATCCCCAGAGCCGGAGCACCAC, the binding signal (log2 normalized intensity) came to 1.27.

On to TTCCTGCACCCGGGCAGCCTGTGGCCAGGC, for which the binding signal (log2 normalized intensity) was -1.21.

In the case of GATAAGAGGCAGTCCTGGCTTGGCCACCTA, the binding signal (log2 normalized intensity) was -1.12.

With TGCCTGGAGAGCTAGTAAGGAGCTGAGTCA, the binding signal (log2 normalized intensity) was -1.28.

With CTTTTTGATCTTGTCACATTTCAAAAGCTG, the binding signal (log2 normalized intensity) was -0.486.

As to TCCTTGGCTCTCCCCACTTACTTCCTGATA, the binding signal (log2 normalized intensity) is 0.385.

On to TTTCTGGGATTTGTACAAGTGATTGGATCT, for which the binding signal (log2 normalized intensity) was determined as 1.24.

On to CCTTTGCCCTCCAAACTGAGAGATTTTTTC, for which the binding signal (log2 normalized intensity) was determined as 0.459.

Take GAGCTTTTACCTCAAATAAAGGTCAGAGTC: the binding signal (log2 normalized intensity) stood at 1.79.

In the case of ATCTATTATTAGGTACAAACATACTTAGGA, the binding signal (log2 normalized intensity) was 0.909.

With TCCTGTAGAATGACCCCCTGGGCTCCAATC, the binding signal (log2 normalized intensity) is 3.22.

Take TCTCTCTCTCTCGTTTTTTTTTTCCCTGAG: the binding signal (log2 normalized intensity) stood at 1.49.

For GGCATTATTAGCCACAACTGAGTATTTAGC, the binding signal (log2 normalized intensity) is -0.728.

In the case of ATGATGGCCAGGGAGTACACCCCTCACTCC, the binding signal (log2 normalized intensity) was -1.09.

With AAGGGAACCCTAATCCACATGCTATTATTT, the binding signal (log2 normalized intensity) was -1.17.

As for TTGCTTATAGCTCAAAGTCCACCAACTCTG, the binding signal (log2 normalized intensity) stood at 4.11.

With GTAATTAATCTGATCGCCCTCCCCCAGAGA, the binding signal (log2 normalized intensity) is 4.99.

With TGATTAGAACATTAAGTCCAAATGCTGGTT, the binding signal (log2 normalized intensity) is 1.2.

Take TTAGACAGTGCTTCCAAAGGACAGGGTTTC: the binding signal (log2 normalized intensity) came out at 0.777.

For the sequence CAGAGACCTTTGCTCACGTTTTCCTGCTGA, the binding signal (log2 normalized intensity) came to 1.13.

On to TAACAATTCTTTCTGATAAGAGCATTTTTG, for which the binding signal (log2 normalized intensity) amounted to 0.953.

For the sequence GAGCCCAGCAAACCTATAGGACCAGGCTGT, the binding signal (log2 normalized intensity) was -1.15.

On to TTATACAGCCTTGGAAGACACAGATGGTGT, for which the binding signal (log2 normalized intensity) came to 1.16.

Regarding AGGTGCCTGGGATCGAAAGGACATTGTCCA, the binding signal (log2 normalized intensity) amounted to 1.98.

As to TGGGGCTTAGATAGCAGTGTGAGTGTCAGA, the binding signal (log2 normalized intensity) came to 1.23.

With AAAGGTGATCTGCTGGAATGAAGACTCACA, the binding signal (log2 normalized intensity) was -1.15.

Take CACAAGTCCTCACAATAATGAGAAACGCCT: the binding signal (log2 normalized intensity) is -1.11.

For AACAAAGAGAAAGGGTCAATGTGATCAGGT, the binding signal (log2 normalized intensity) was 1.77.

As for GCACAGCTGATTGCTCAACCCAAAGCATGT, the binding signal (log2 normalized intensity) was -1.1.

Turning to ACCTTGCAGGCCAGGGAGTGCAGCTGCAGG, the binding signal (log2 normalized intensity) is -0.904.

Consider TCCTTCCCTCAGCAACTGCAAGGCTGACCC, for which the binding signal (log2 normalized intensity) stood at 3.61.

With TGGGCACTGTCCTAGGTGCTGAAGATGCAA, the binding signal (log2 normalized intensity) was -0.724.

Turning to ACTTGTTTTTTCAGGTGTTGCTCTCTTGCC, the binding signal (log2 normalized intensity) was found to be 1.73.

AAGTGCTTGTTCCCTCCATCCAAGGCCCGC: the binding signal (log2 normalized intensity) is -0.635.

AAGTGGTTGTAGCAGTTCACACTCCCACCA: the binding signal (log2 normalized intensity) was -1.08.

As to GAAAGGGCCTCTCAGGTCAGGGAAGACTGA, the binding signal (log2 normalized intensity) was -1.08.

Consider GCCCTCTCCATGCAGACAGTCCCTCCTCCA, for which the binding signal (log2 normalized intensity) was found to be 1.37.

For TAGATAAGAGCTGAGGAAGTGCTGACCTTT, the binding signal (log2 normalized intensity) stood at 5.77.

Take ATATGAAGCATTGCTTGAGTCACTTGGTTT: the binding signal (log2 normalized intensity) is 1.23.

Take AGCAAGGTCAAAGTGCGTCCTGTGGCAAAG: the binding signal (log2 normalized intensity) was determined as 3.51.

AAGCAGAAGGAGGAGGAGGTTCCTGGAACT: the binding signal (log2 normalized intensity) is -1.05.

In the case of CCCTTATCTTCTGGCCACCTCTTCCAGAGT, the binding signal (log2 normalized intensity) is 0.501.

Consider GCACAGAAGGAGAGAGAGGGAGAGTGGCCT, for which the binding signal (log2 normalized intensity) was -1.16.

As to GGTGATGTGAACCTCGATCCCTGGCTAAGG, the binding signal (log2 normalized intensity) is 1.24.

Turning to CAGACACGCTTGACTGGCTCCACCACTTTG, the binding signal (log2 normalized intensity) is -1.09.

Consider GACAAAGAGCAAGTGACCCTCAGACACACA, for which the binding signal (log2 normalized intensity) amounted to 0.268.

Turning to AATTTGTCTTTTCTCCCCCGATAAGGCTGC, the binding signal (log2 normalized intensity) was found to be 4.09.

With TGGTCCTTCAAGTGTGACCCTGAACCTACA, the binding signal (log2 normalized intensity) came out at 2.28.

Turning to GAGAGCAAACTTCAAAGAAGCTGTTGGAAA, the binding signal (log2 normalized intensity) is -1.22.

For GAGTGTGACTGTGGTACTCCAAAGGTCAGT, the binding signal (log2 normalized intensity) came to 4.61.

On to TGTGTTCCACAGTCAAGGCCAAAGGTTAAA, for which the binding signal (log2 normalized intensity) stood at 5.02.

Turning to CTTAGCAAATATTTACTGAATGAATGTCCA, the binding signal (log2 normalized intensity) stood at 0.528.

On to ACTTTAACCTTTAGATTACTAGGAATTGAT, for which the binding signal (log2 normalized intensity) is 0.914.

As for GAAATATGTAGGTTTGGGGAACTTTGCACT, the binding signal (log2 normalized intensity) turned out to be 3.7.
